Experimental data from PMC13208732 (2026).

Biological target: T1, recombinant human placental growth factor 2 (PlGF-2) (human, UniProt P49763-3 19-170)
T1 chain: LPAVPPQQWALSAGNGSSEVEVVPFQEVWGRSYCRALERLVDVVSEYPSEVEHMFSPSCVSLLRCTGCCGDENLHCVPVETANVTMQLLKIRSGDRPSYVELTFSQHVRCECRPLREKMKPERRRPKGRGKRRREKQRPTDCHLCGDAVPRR
Test: ELISA; competition with biotinylated NRP1, no heparin

B1: NRP1 receptor domains α1α2β1β2 fused to a C-terminal Fc, biotinylated (Fc fusion)
chain: not shown
modifications: biotin (EZ-Link Sulfo-NHS-Biotinylation Kit)
- IC50: 22.2 nM
